System: OsC4H
Experiment: qRT-PCR in rice roots, OsC4H (Example 19)
Details: fourteen-day old rice cv. Bomba; treated foliarly twenty-four and three hours prior to harvest with 100 μM

Compound	increase of C4H expression in the root system
O=C(O)/C=C/c1ccc2c(c1)OCO2 [MDCA, 3,4-methylenedioxycinnamic acid]	three-fold
O=C(O)c1ccc2c(c1)OCO2 [PA, Piperonylic acid]	ten-fold

Source: patent US11992011B2, “Compounds for controlling plant pathogens” (VIB VZW, priority 2017, dated 2024)
